According to article PMC12040169 (PLOS Biology, 2025):
This is one part of the list.

Each compound was assayed on T1, C. trachomatis L2/434/Bu expressing GFP (CTL2-GFP). Details: total inclusion area; 28.5 h, 10 µM; inhibitor.
T1 construct: L2/434/Bu GFP intracellular growth in HeLa cells
Parameters: species or system HeLa; C. trachomatis total inclusion area by high-content imaging, normalised to DMSO
How it was run: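 Bulk GFP and resorufin signals were read first. Wells were then fixed, stained with Hoechst and imaged to detect GFP inclusions and host nuclei. MICs followed the previously described calculation.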

Q: `CCOC(=O)c1cnn(C)c1-c1ccc(F)cc1OC` [CBK149233] was tested. Which “% of control remaining” value did it give?
A: 104.206

Q: For `Cc1cnccc1CN1CCC[C@@H]2CN(C(=O)CC(C)C)C[C@@H]21` [CBK285289], which “% of control remaining” value is on record?
A: 74.3872

Q: For `Cc1ccn2c(C3CCN(CCc4ccccc4)CC3)nc(-c3ccccc3)c2c1` [CBK035490], which “% of control remaining” value is on record?
A: 99.6103

Q: Which “% of control remaining” value does the source give for `COCCCNCCSc1ccc(Cl)cc1` [CBK265093] here?
A: 99.8412

Q: How did the “% of control remaining” value turn out when `CN1CCCc2cc(-c3cncn3CC(=O)NC(C)(C)C)ccc21` [CBK281700] was run?
A: 100.746

Q: With `O=C(Nc1ccc2ncsc2c1)C1COc2ccccc2O1` (centres unmarked) [CBK287750] as the compound, how does the “% of control remaining” value read?
A: 82.5319

Q: Which “% of control remaining” value does the source give for `COc1ccc2[nH]c3c(c2c1)CCOC31CCN(C(=O)CC(C)CC(=O)O)CC1` (centres unmarked) [CBK047197] here?
A: 86.5624

Q: With `COC(=O)c1sc(-c2ccsc2)cc1N` [CBK006256] as the compound, how does the “% of control remaining” value read?
A: 95.046

Q: Which “% of control remaining” value does the source give for `Cc1ccc([N+](=O)[O-])cc1NC(=O)CSc1nnc(-c2ccco2)o1` [CBK268378] here?
A: 104.845

Q: `Cc1cc(C)n(C2CN(CC(=O)NCc3ccccn3)C2)n1` [CBK306238] was tested. Which “% of control remaining” value did it give?
A: 100.857

Q: Which “% of control remaining” value does the source give for `CC(C)(O)c1cc(CC2(NCC3CCCCC3)COC2)no1` [CBK289656] here?
A: 121.09

Q: How did the “% of control remaining” value turn out when `COc1cc(NC(=O)C2CCCN2)ccc1-n1cccc1` (centres unmarked) [CBK282500] was run?
A: 100.254

Q: `CC(=O)NCCSc1nccnc1N1CCCC1` [CBK105619] was tested. Which “% of control remaining” value did it give?
A: 94.3156

Q: `O=C(NCCn1nc2c(cc1=O)CCCCC2)c1cccs1` [CBK283277] was tested. Which “% of control remaining” value did it give?
A: 93.746

Q: `CC1CCN(C(=O)c2cccc(Cn3cc(Br)cn3)c2)CC1` [CBK058482] was tested. Which “% of control remaining” value did it give?
A: 101.242

Q: For `Cc1ccc(S(=O)(=O)CC(=O)N2CCCC3(CCN(C(=O)c4cc(F)c(F)cc4F)C3)C2)cc1` (centres unmarked) [CBK131558], which “% of control remaining” value is on record?
A: 0.1099

Q: Which “% of control remaining” value does the source give for `CC(O)C(=O)NS(=O)(=O)c1ccccc1` (centres unmarked) [CBK038300] here?
A: 99.2712

Q: With `CCN1C(=O)C2(CC(=O)N(CCCN(C)C(=O)c3ccco3)C2=O)c2cc(C)ccc21` (centres unmarked) [CBK075141] as the compound, how does the “% of control remaining” value read?
A: 81.6559

Q: `CC(C)N(C(=O)Cn1c(C(F)F)cc2cccnc21)C(C)C` [CBK285009] was tested. Which “% of control remaining” value did it give?
A: 115.427

Q: How did the “% of control remaining” value turn out when `CCOC(=O)N1CCN(Cc2ccc(OCc3nccn3C)cc2)CC1` [CBK305413] was run?
A: 42.8095

Q: How did the “% of control remaining” value turn out when `CC(=O)N1CCC(C(=O)NC(=O)Nc2cccc(C)c2)CC1` [CBK034854] was run?
A: 60.2983

Q: `CN(C)C(=O)CN1CCC2(CC1)CN(S(C)(=O)=O)c1ccccc12` [CBK126686] was tested. Which “% of control remaining” value did it give?
A: 91.8096

Q: Which “% of control remaining” value does the source give for `c1ccc2cc(-c3cn4ccnc4c(N4CCN(c5ccncc5)CC4)n3)ccc2c1` [CBK066369] here?
A: 87.3335

Q: `O=C(Nc1cccnc1N1CCNCC1)c1ccccn1` [CBK029425T] was tested. Which “% of control remaining” value did it give?
A: 107.065

Q: Which “% of control remaining” value does the source give for `CC(C)C1CC(CCNCc2ccc(N(C)C)cc2)(c2ccccc2)CCO1` (centres unmarked) [CBK266210] here?
A: 90.1369

Q: With `CCOC(=O)c1ccc(NC(=O)N2CCC3(CC2)NC(=O)Cc2ccccc23)cc1` [CBK047362] as the compound, how does the “% of control remaining” value read?
A: 83.2965

Q: For `O=C(Cc1cccc2ccccc12)NC(NC(=S)Nc1ccccc1Br)C(Cl)(Cl)Cl` (centres unmarked) [CBK261094], which “% of control remaining” value is on record?
A: 70.2223

Q: For `CCCC(=O)Nc1ccccc1OC1CCNCC1` [CBK045902T], which “% of control remaining” value is on record?
A: 73.376

Q: `CC1=CC(C)C(C(=O)O)C(C(=O)Nc2ccccc2)C1` (centres unmarked) [CBK286851] was tested. Which “% of control remaining” value did it give?
A: 74.9062

Q: For `c1ccc(C(Nc2cnccn2)C2CC2)cc1` (centres unmarked) [CBK304145], which “% of control remaining” value is on record?
A: 67.4677

Q: For `COc1ccc(-c2cn3ccnc3c(Nc3ccc(N4CCOCC4)cc3)n2)cc1` [CBK066265], which “% of control remaining” value is on record?
A: 104.112

Q: `O=C(Nc1ccnn1Cc1ccccc1)C1CC(c2cccc(F)c2)=NO1` (centres unmarked) [CBK297772] was tested. Which “% of control remaining” value did it give?
A: 99.889

Q: Which “% of control remaining” value does the source give for `COC(=O)Cn1c(C(C)(C)C)cn2c3c(=O)n(C)c(=O)n(C)c3nc12` [CBK307555] here?
A: 39.1969

Q: How did the “% of control remaining” value turn out when `COCc1nnc(Sc2nc3ccccc3nc2NC(C)C)s1` [CBK115253] was run?
A: 110.503

Q: How did the “% of control remaining” value turn out when `NC(=O)c1ccc(-n2cc(-c3ccc(Cl)cc3)nn2)cc1` [CBK113046] was run?
A: 96.2269

Q: `CCCC(=O)c1ccc(S(=O)(=O)N2CCN(Cc3ccc(C(C)=O)cc3)CC2)cc1` [CBK063159] was tested. Which “% of control remaining” value did it give?
A: 64.7029

Q: How did the “% of control remaining” value turn out when `Cc1ccc(-c2ccc(/C=C(\C#N)c3nc(-c4ccco4)cs3)o2)c([N+](=O)[O-])c1` [CBK266685] was run?
A: 120.552

Q: With `COc1ccccc1C1(O)CCN(CC(O)c2ccc3c(c2)OCCO3)CC1` (centres unmarked) [CBK286482] as the compound, how does the “% of control remaining” value read?
A: 76.1112

Q: `O=C(Cn1cccn1)NC(Cc1ccsc1)c1cccnc1` (centres unmarked) [CBK285396] was tested. Which “% of control remaining” value did it give?
A: 101.58

Q: Which “% of control remaining” value does the source give for `O=C(C1CC=CCC1)N1CCCC(c2[nH]ncc2-c2ccncc2)C1` (centres unmarked) [CBK284198] here?
A: 54.1688

Q: For `CCC(CN1CCCCC1)n1cncc1-c1cn(C)nc1C` (centres unmarked) [CBK281460], which “% of control remaining” value is on record?
A: 110.411

Q: Which “% of control remaining” value does the source give for `O=C(Cc1c(O)c2ccccc2[nH]c1=O)NCc1ccccc1Cl` [CBK160320] here?
A: 88.8379

Q: With `N=c1n(CC(=O)O)c2ccccc2n1Cc1ccccc1Cl` [CBK262917B] as the compound, how does the “% of control remaining” value read?
A: 81.53

Q: Which “% of control remaining” value does the source give for `Cc1ccsc1CN1CCCCC1CO` (centres unmarked) [CBK026348] here?
A: 114.183

Q: Which “% of control remaining” value does the source give for `O=C(NCC1(CCO)CC1)c1c[nH]nc1-c1cc2ccccc2o1` [CBK306163] here?
A: 48.7394

Q: For `Nc1nonc1-c1nc2ccccc2n1Cc1cc2c(cc1Br)OCO2` [CBK267961], which “% of control remaining” value is on record?
A: 92.5712

Q: How did the “% of control remaining” value turn out when `CC(C)(C)C(=O)NCc1ccc(C(=O)CSc2n[nH]c(=O)n2C2CC2)s1` [CBK295653] was run?
A: 101.947

Q: `CCCC/C=C/c1nccnc1NCc1ccc2c(c1)OCO2` [CBK037304] was tested. Which “% of control remaining” value did it give?
A: 131.136

Q: Which “% of control remaining” value does the source give for `Cc1nnc([C@H]2CCN(Cc3cccs3)C2)o1` [CBK289393] here?
A: 102.068

Q: Which “% of control remaining” value does the source give for `Cc1ccccc1OCC1CCCN(C(=O)C2CC(=O)OC2(C)C)C1` (centres unmarked) [CBK282062] here?
A: 116.174

Q: For `Cc1ccc(Cl)cc1NC(=O)CC(C(=O)O)N(C)C` (centres unmarked) [CBK267105], which “% of control remaining” value is on record?
A: 95.2031

Q: How did the “% of control remaining” value turn out when `CC(=O)NS(=O)(=O)c1ccc(NC(=O)c2cn(-c3ccccc3)nc2-c2cccs2)cc1` [CBK296125] was run?
A: 96.2614

Q: `O=C1CC2(CCCCC2)C(C(=O)O)N1` (centres unmarked) [CBK009895] was tested. Which “% of control remaining” value did it give?
A: 50.8862
